Reference: PubChem BioAssay AID720542 (National Center for Advancing Translational Sciences (NCATS), 2013)
In all, about 360,000 compounds went through this assay and about 740 (0.21%) were called active. The shares of active, inactive and inconclusive entries below differ from those in the screen. Calls follow the shape of the dose curve; as a rule, active = well fitted inhibition curve with a large enough effect; inconclusive = small, poorly fitted or top-dose-only effect; inactive = no such curve, though single readings can be large or run the other way. No potency is given beside an inconclusive call; the fits are too rough.

These molecules were tested on Plasmodium falciparum AMA1 (3D7) - RON2 peptide interaction (assay: qHTS for Inhibitors of AMA1-RON; Towards Development of Antimalarial Drug Lead: Primary Screen). Conditions: AlphaScreen AMA1-biotinylated RON2 peptide binding; activity change, negative = inhibition: at 58.2 µM (top of the series) unless noted.
Method in brief: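 AMA1 (3D7) with his tag at 25 nM final met compounds first, then biotinylated RON2 peptide at 25 nM; detection used donor plus acceptor beads, 10 µg/mL apiece, read by AlphaScreen after 30 min at room temperature.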
Also: nearly all actives have a fitted effect of over 45% in size.
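For activity change, negative = inhibition in this document: 0% = vehicle wells and -100% = peptide control.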
Potency is read from the fitted curve at half-maximal effect; tags tell the direction and shape of the fitted curve.

Row | SMILES | Potency | activity change, negative = inhibition
1 | O=C(O)C(F)(F)C(NCc1ccccc1)c1ccccc1 (centres undefined) | inconclusive [inhibitor, partial curve] | 
2 | COCCNC(=O)CCCn1c(=O)c2cc(OC)c(OC)cc2n(CC(=O)c2cccc(OC)c2)c1=O | inconclusive [inhibitor, single point] | 
3 | Cc1csc(NC(=O)c2cc3c(s2)CCCC3)n1 |  | inactive: -7.99%
4 | N/C(=N\N=Cc1ccc2c(c1)OCO2)NN=Cc1ccc2c(c1)OCO2 |  | inactive: 22.6%
5 | CC(=O)c1c(N2CCN(Cc3ccccc3)CC2)nc(=S)n(Cc2ccccc2)c1C | inconclusive [inhibitor, single point] | 
6 | C[C@@H]1O[C@@H](O[C@@H]2[C@@H](O)[C@H](OCCc3ccc(O)c(O)c3)O[C@H](CO)[C@H]2OC(=O)/C=C/c2ccc(O)c(O)c2)[C@H](O)[C@H](O)[C@H]1O | inconclusive [inhibitor, full curve] | 
7 | CC12COC3(P(=O)(c4ccccc4)c4ccccc4)CC1CCC23CP(=O)(c1ccccc1)c1ccccc1 (centres undefined) |  | inactive: -17.8%
8 | Cc1cc(/C=C2/SC(=S)N(c3cccc(C(F)(F)F)c3)C2=O)c(C)n1-c1cccnc1 | inconclusive [inhibitor, partial curve] | 
9 | COc1ccc(OCCNc2cc(Cl)ccc2[N+](=O)[O-])cc1 |  | inactive: -5.72%
10 | CC(=O)Nc1nc2ccccc2n1Cc1ccccc1C | inconclusive [inhibitor, full curve] | 
11 | N#CC1c2ccccc2C=CN1C(=O)N(c1ccccc1)c1ccccc1 (centres undefined) |  | inactive: -28.2%
12 | CC1(C(=O)NCc2ccccc2Br)CCN1Cc1ccc(-c2ccccc2)o1 (centres undefined) | inconclusive [inhibitor, single point] | 
13 | CN1C(=O)CSc2ccc(NC(=O)N3CCOCC3)cc21 | inconclusive [inhibitor, single point] | 
14 | O=C(Nc1ccc(Br)c(Cl)c1)c1ccco1 |  | inactive: 32.5%
15 | COc1ccc(N2CCN(C(=O)COC(=O)CCOc3ccccc3C)CC2)cc1 | inconclusive [inhibitor, single point] | 
16 | COc1cccc(-c2cc3c(c4c2ccn4C)C2CCC3C2)c1 (centres undefined) | inconclusive [inhibitor, partial curve] | 
17 | O=C(Nc1cccnc1)c1cc(-c2cccs2)on1 |  | inactive: -4.19%
18 | Cc1sc2nc(CN3CCCC3)nc(N3CCN(S(=O)(=O)c4ccccc4)CC3)c2c1C |  | inactive: -12.5%
19 | O=C(NC(c1ccc(F)cc1)c1ccc2ccccc2n1)C1CCN(CCOc2ccc(Cl)cc2Cl)CC1 (centres undefined) | inconclusive [inhibitor, single point] | 
20 | CN(C)c1ccc(Nc2nc(N)c([N+](=O)[O-])c(N3CCOCC3)n2)cc1 | inconclusive [inhibitor, partial curve] | 
21 | CC(C)C1(C)N=C(c2ncccc2C(=O)O)NC1=O (centres undefined) | inconclusive [inhibitor, single point] | 
22 | O=[N+]([O-])c1ccc(/C=C/c2ccc3cccc([N+](=O)[O-])c3n2)cc1 | inconclusive [inhibitor, full curve] | 

Row | SMILES | Potency | activity change, negative = inhibition
23 | CN1CCN(C2Cc3ccc(Cl)cc3Sc3ccc(F)cc32)CC1 (centres undefined) | inconclusive [inhibitor, partial curve] | 
24 | Cc1ccc(C(=O)N2CCCC(c3ccc(Cl)cc3)=N2)cc1 | inconclusive [inhibitor, single point] | 
25 | CN=C1C=C/C(=N/N=c2\ccn(O)cc2C)C=C1C | inconclusive [inhibitor, partial curve] | 
26 | CCN(CC)Cc1oc(CO)cc(=O)c1O | inconclusive [inhibitor, partial curve] | 
27 | COC(=O)c1ccc(OC(=O)c2ccccn2)cc1 | inconclusive [inhibitor, single point] | 
28 | CC(C)C(=O)N1CCN(c2ccccc2NC(=O)c2cccc(Cl)c2)CC1 | inconclusive [inhibitor, partial curve] | 
29 | O=C(CCc1nc2ccccc2[nH]1)Nc1ccccc1 |  | inactive: 19.1%
30 | COc1cc(OC)c(OC)cc1CNc1cc(C)ccc1OC | inconclusive [inhibitor, single point] | 
31 | CCOc1ccc(/C=N/N2CCN(Cc3ccccc3)CC2)cc1 | inconclusive [inhibitor, partial curve] | 
32 | Cn1cnc2c1c(=O)n(Cc1cccc(Br)c1)c(=O)n2C | inconclusive [inhibitor, single point] | 
33 | COc1cccc(CNC(=O)COC(=O)c2ccc(Cl)s2)c1 | inconclusive [inhibitor, single point] | 
34 | Cc1ccc2c(c1)nnn2C1CCN(C(=O)c2cccs2)CC1 | inconclusive [inhibitor, partial curve, poor fit] | 
35 | NC(=O)N/N=C/c1cn(-c2ccccc2)nc1-c1cccs1 | inconclusive [inhibitor, single point] | 
36 | COC(=O)C1=C(C)N(C2CCCCC2)C(=O)/C1=C\c1cccs1 | inconclusive [inhibitor, partial curve] | 
37 | CCCCCC/C(=N/O)c1ccccn1 |  | inactive: 48.2%
38 | COc1ccc(CCNC(=O)C(=O)NCC2CCCO2)cc1OC (centres undefined) | inconclusive [inhibitor, single point] | 
39 | COC(=O)/C(=N/Nc1ccc(C)cc1)N1CCCc2ccccc21 | inconclusive [inhibitor, single point] | 
40 | COC(=O)CCN(C(=O)c1ccc(N2CCCCC2)c([N+](=O)[O-])c1)c1ccccn1 | inconclusive [inhibitor, single point] | 
41 | COc1cc(S(=O)(=O)N(Cc2cccnc2)Cc2ccco2)ccc1-n1cnnn1 | inconclusive [inhibitor, single point] | 
42 | Cc1ccc(C)c(OCc2cc(C(=O)NC(C)c3cnn(C)c3)no2)c1 (centres undefined) |  | inactive: 11%
43 | CCOC(=O)N1C2c3ccccc3C(c3ccccc32)N1C(=O)OCC |  | inactive: -4.05%
44 | Cc1ccc(OCc2nc(C#N)c(N3CCN(Cc4ccccc4)CC3)o2)cc1 | inconclusive [inhibitor, partial curve] | 
